Experimental data as given in the supplement of paper PMC9446081.
The whole screen tested about 39,000 compounds, of which about 220 (0.56%) showed activity. The list shows a part of the results.
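Further: static incubation at 37 °C against the wild-type strain, values averaged over two biological replicates.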

The compounds below were run on Escherichia coli K-12 BW25113 (assay: relative growth (OD600 normalised to plate interquartile mean) (fraction); higher = less growth inhibition, active = 0.2 or less). Settings: 50 µM; LB; incubation time: overnight (16-24 h).
With `Cc1ccc(S(=O)(=O)Nc2ccc3c(c2)C(=O)N([C@H](C)CO)C[C@@H](C)[C@@H](CN(C)Cc2ccc4c(c2)OCO4)OCCCC[C@H](C)O3)cc1` the relative growth was inactive: 1. In the case of `C[C@@H]1CN([C@H](C)CO)C(=O)c2cc(NS(=O)(=O)c3ccccc3)ccc2O[C@@H](C)CCCCO[C@H]1CN(C)C(=O)C1CCCCC1`, the relative growth is reported as inactive: 1. In the case of `CNC(=O)c1ccc(CN)cc1`, the relative growth is reported as inactive: 1.01. In the case of `COCC#Cc1cnc2c(c1)C(=O)N([C@H](C)CO)C[C@H](C)[C@H](CN(C)C(=O)CN1CCOCC1)O2`, the relative growth is reported as inactive: 0.97. `C[C@H]1CN([C@@H](C)CO)C(=O)c2cc(NC(=O)Cn3cnnn3)ccc2O[C@@H]1CN(C)S(=O)(=O)c1ccc(F)cc1` was tested, and the relative growth was inactive: 0.987. With `COc1cccc(S(=O)(=O)N(C)C[C@H]2OCc3cn(nn3)CCCC(=O)N([C@H](C)CO)C[C@@H]2C)c1` the relative growth was inactive: 1.04. For `C[C@@H]1CN([C@H](C)CO)C(=O)c2cc(NC(=O)c3ccccc3)ccc2O[C@@H](C)CCCCO[C@@H]1CN(C)C(=O)c1ccccc1`, the relative growth was inactive: 0.886. In the case of `COc1ccc(S(=O)(=O)N(C)C[C@@H]2Oc3ccc(NS(=O)(=O)c4c(C)noc4C)cc3C(=O)N([C@@H](C)CO)C[C@H]2C)cc1`, the relative growth is reported as inactive: 0.979. `Cc1ccc(S(=O)(=O)Nc2ccc3c(c2)C(=O)N([C@H](C)CO)C[C@@H](C)[C@@H](CN(C)S(=O)(=O)c2ccc(Cl)cc2)OCCCC[C@@H](C)O3)cc1` was tested, and the relative growth was inactive: 1.04. In the case of `C[C@@H]1CN([C@H](C)CO)C(=O)c2c(c3ccccc3n2C)-c2ccccc2CO[C@H]1CN(C)C(=O)NC1CCCCC1`, the relative growth is reported as inactive: 1.02. For `COc1ccc(S(=O)(=O)N(C)C[C@@H]2Oc3ccc(NS(C)(=O)=O)cc3CC(=O)N([C@@H](C)CO)C[C@@H]2C)cc1`, the relative growth was inactive: 1.02. `C[C@H]1CN([C@@H](C)CO)C(=O)c2cc(NC(=O)Nc3ccccc3)ccc2O[C@@H]1CN(C)Cc1ccc(Cl)c(Cl)c1` was tested, and the relative growth was inactive: 1.06. With `COc1ccc(CN(C)C[C@H]2OCCCC[C@H](C)Oc3ccc(NC(=O)Cc4ccccc4)cc3C(=O)N([C@@H](C)CO)C[C@@H]2C)cc1` the relative growth was inactive: 0.997. `CN(C)CC(=O)N[C@@H]1CC[C@H](CCNC(=O)C2CCC2)O[C@H]1CO` was tested, and the relative growth was inactive: 1.01. In the case of `C[C@H]1NC(=O)[C@H](Cc2ccccc2)NC(=O)[C@@]23C(=O)N[C@@H](Cc4ccccc4)[C@@H]2[C@H](C)[C@@]2(C)O[C@H]2[C@H]3/C=C/C/C=C\CNC1=O`, the relative growth is reported as inactive: 1.01. With `Cc1noc(C)c1S(=O)(=O)Nc1ccc2c(c1)C(=O)N([C@@H](C)CO)C[C@@H](C)[C@@H](CN(C)C(=O)Nc1cccc3ccccc13)OCCCC[C@@H](C)O2` the relative growth was inactive: 1.04. In the case of `C[C@@H]1CN([C@@H](C)CO)C(=O)Cc2cc(NC(=O)Cc3ccccc3)ccc2O[C@H]1CN(C)Cc1ccc(C(F)(F)F)cc1`, the relative growth is reported as inactive: 1. With `CC[C@H](C)[C@@H]([C@@H](CC(=O)N1CCC[C@H]1[C@H](OC)[C@@H](C)C(=O)N[C@@H](Cc1ccccc1)c1nccs1)OC)N(C)C(=O)[C@@H](NC(=O)[C@H](C(C)C)N(C)C)C(C)C` the relative growth was inactive: 1.06. `COCCNC(=O)C[C@@H]1CC[C@@H]2[C@H](COC[C@H](O)CN2C(=O)Nc2ccc3c(c2)OCO3)O1` was tested, and the relative growth was inactive: 0.977. With `Nc1nc2nc[nH]c2c(=O)[nH]1` the relative growth was inactive: 0.961. For `O=C(C[C@@H]1CC[C@@H]2[C@H](COC[C@H](O)CN2C(=O)Nc2ccc(Cl)cc2)O1)NC1Cc2ccccc2C1`, the relative growth was inactive: 0.968. For `CC(C)C[C@H](NC(=O)[C@H]1O[C@@H]1C(=O)O)C(=O)NCCCCNC(=N)N`, the relative growth was inactive: 1.01. For `C[C@H]1CCCCO[C@@H](CN(C)C(=O)c2ccccc2)[C@@H](C)CN([C@@H](C)CO)C(=O)c2cc(NS(=O)(=O)c3cccs3)ccc2O1`, the relative growth was inactive: 0.98. For `CCOc1ccc(Nc2c3ccccc3nc3ccccc23)cc1`, the relative growth was inactive: 0.671. With `C[C@@H]1CN([C@@H](C)CO)C(=O)c2cc(NC(=O)Nc3ccccc3)ccc2O[C@@H](C)CCCCO[C@@H]1CN(C)Cc1ccc(C(F)(F)F)cc1` the relative growth was inactive: 1.06. `C[C@H](CO)N1C[C@H](C)[C@@H](CN(C)S(=O)(=O)c2cccs2)Oc2c(NC(=O)Cn3cnnn3)cccc2C1=O` was tested, and the relative growth was inactive: 0.999. `COc1ccc(NC(=O)N(C)C[C@@H]2Oc3ccc(NC(=O)Nc4cccc5ccccc45)cc3CC(=O)N([C@@H](C)CO)C[C@@H]2C)cc1` was tested, and the relative growth was inactive: 0.993. In the case of `CCc1cc(C(N)=S)ccn1`, the relative growth is reported as inactive: 0.98. `C[C@H]1CN([C@@H](C)CO)C(=O)c2cc(-c3cccnc3)cnc2O[C@H]1CN(C)Cc1ccc(-c2ccccc2)cc1` was tested, and the relative growth was inactive: 1.02. With `CN(C)CCN1C(=O)CO[C@H]2CN(C(=O)NCc3cccnc3)C[C@@H]21` the relative growth was inactive: 0.957. In the case of `C[C@H]1CN([C@@H](C)CO)C(=O)Cc2cc(NC(=O)Cc3cn(C)c4ccccc34)ccc2O[C@@H]1CN(C)Cc1ccc(C(=O)Nc2ccccc2N)cc1`, the relative growth is reported as inactive: 1.02. In the case of `CNC(=O)CN1CCOC[C@@]2(C1)CN(C(=O)c1ccn[nH]1)CCO2`, the relative growth is reported as inactive: 0.952. For `CC(=O)Nc1c(I)c(NC(C)=O)c(I)c(C(=O)O)c1I`, the relative growth was inactive: 1.08. With `C[C@H]1CCCCO[C@@H](CN(C)C(=O)NC2CCCCC2)[C@@H](C)CN([C@@H](C)CO)C(=O)c2cc(NC(=O)Nc3ccccc3)ccc2O1` the relative growth was inactive: 0.857. In the case of `Nc1nncn1C(=O)c1ccccc1F`, the relative growth is reported as inactive: 0.975. With `CN1C(=O)c2cc(NC(=O)c3cscn3)ccc2OC[C@@H]2O[C@H](CC(=O)N3CCOCC3)CC[C@@H]21` the relative growth was inactive: 0.959. `O=C(OC1Cc2c(O)cc(O)cc2OC1c1cc(O)c(=O)c2c(O)c(O)cc(C3Oc4cc(O)cc(O)c4CC3O)c2c1)c1cc(O)c(O)c(O)c1` (centres undefined) was tested, and the relative growth was inactive: 0.936. For `C[C@@H]1CCCCO[C@H](CN(C)Cc2ccc(C(F)(F)F)cc2)[C@@H](C)CN([C@H](C)CO)C(=O)c2cc(NS(C)(=O)=O)ccc2O1`, the relative growth was inactive: 1.02. `C[C@H](CO)N1C[C@H](C)[C@H](CN(C)Cc2ccc(C(=O)O)cc2)OCc2ccccc2-c2c(n(C)c3ccccc23)C1=O` was tested, and the relative growth was inactive: 0.959.
